Measured values reported in PubChem BioAssay (NCATS).
Several values for one entry are separate records, joined by “and”; a condition that tells them apart may be missing. Equal entries are not always repeated. Inconclusive results, whose numbers are uncertain, are shown with a selection of clear calls. Potencies of inconclusive entries are doubtful fits and often do not repeat. Activity calls are given as the source filed them. Calls come from the whole dose curve; as a rule, active = well fitted inhibition curve with a large enough effect; inconclusive = small, poorly fitted or top-dose-only effect; inactive = flat fitted curve, though single readings scatter.

Assay: qHTS for Inhibitors of Plasmodium falciparum (DD2) proliferation (AID 504314)
Settings: P. falciparum Dd2 in erythrocytes, SYBR Green growth, 72 h; activity, negative = inhibition: at 6.11 µM (top of the series)
Source text: Plasmodium falciparum is a virulent malarial parasite that kills 1-2 million people worldwide each year. Malaria not only inflicts tremendous suffering and morbidity on the human population, but has dramatically influenced the course of civilization with profound sociological and economic implications (Shah, S. 2010). Transmitted by mosquitoes, the sporozoite form of the parasite enters the blood stream to infect hepatocytes, where they become merozoites that infect red blood cells (erythrocytes). Within erythrocytes, merozoites begin a […] cycle of growth and division, after which the parasite is released to infect new red blood cells. Gametocytes, which form within erythrocytes as well, circulate in the bloodstream and are ingested by the mosquito, thereby completing the life cycle (see CDC website). To profile malarial lines for differential chemical responses and to identify inhibitors of malarial growth, an assay that measures P. falciparum growth and replication within erythrocytes was employed. This assay uses a DNA binding fluorescent dye (SYBR Green) to detect parasite DNA following cell lysis. Because mature erythrocytes lack DNA, only Plasmodium-derived DNA is detected. The P. falciparum line cp250, derived from a malarial isolate from Cambodia, (Mu, J., et al. 2010) was added to the panel of lines, Dd2, HB3, 7G8 and GB4 in this study.
Laboratory of Assay Development and Screening Technology [ADST] and NIH Chemical Genomics Center [NCGC]
Boston University, Chemistry Department, Center for Chemical Methodology and Library Development [CMLD-BU]
NIH National Institute of Allergy and Infectious Diseases [NIAID]
ADST Assay Protocol Summary:
The 1536-well SYBR Green viability assay was based on the method of Bennett et al (2004) and described previously in 1536-well format (Yuan J., et al. 2009). For screening 3 ul culture medium was dispensed into 1536 well black clear bottom plates (Aurora Biotechnologies) using a Multidrop Combi (Thermo Fisher Scientific Inc.), 23 nL compounds in DMSO were added by a pin transfer (Cleveland, P.H. and Koutz, P.J, 2005) using a pin tool-based delivery system (Kalypsys), and 5 ul of erythrocytes infected with P. falciparum one of five lines (cp250, Dd2, HB3, 7G8 or GB4, 0.3% parasitemia, 2.5% hematocrit final concentration) were added. The plates were incubated at 37C in a humidified incubator in 5% CO2 for 72 h, and 2 ul lysis buffer (20 mM Tris HCl, 10 mM EDTA, 0.16% saponin, 1.6% triton X, 10X SYBR Green I (supplied as 10,000X final concentration by Invitrogen) was added to each well. The plates were mixed for 25 sec with gentle shaking and incubated overnight at room temperature in the dark. The following morning, fluorescence intensity at 485(14) nm excitation and 535(25) nm emission wavelengths was measured on an EnVision (Perkin Elmer) plate reader. Plate reads were normalized relative to the control inhibitor (0.29 uM artemisinin) and vehicle (DMSO) wells present on each plate and then corrected by an algorithm using vehicle-only control plates at the beginning and end of the compound plate stack.
Shah, S. (2010). The Fever: how malaria has ruled humankind for 500,000 years. New York, Sarah Crichton Books.
CDC web site, http://www.cdc.gov/malaria/about/biology/index.html
Mu, J., Myers, R.A., Jiang, H., Liu, S., Ricklefs, S., Waisberg, M., Chotivanich, K., Wilairatana, P., Krudsood, S., White, N.J., et Plasmodium falciparum genome-wide scans for positive selection, recombination hot spots and resistance to antimalarial drugs Nature Genetics 2010, 42, pp 268-271
Bennett TN, Paguio, M., Gligorijevic, B., Seudieu, C., Kosar, A. D., Davidson, E., and Roepe, P. D. Novel, rapid, and inexpensive cell-based quantification of antimalarial drug efficacy Antimicrobial Agents Chemother. 2004, 48(5): pp 1807-10
Yuan J, Johnson RL, Huang RL, Wichterman J, Jiang HY, Hayton K, Fidock DA, Wellems TE, Inglese J, Austin CP, Su XZ. […]
Potency is the fitted concentration of half-maximal effect; tags give direction and shape of the fitted curve.

Structure (SMILES) | Potency | activity, negative = inhibition
C=C(Nc1ccc(OC)cc1)C(=O)OC | inactive | 
COc1cc2c(c(OC)c1OC)[C@@]1(c3ccccc3)CCCCC[C@H]1[C@@H]2NC(=O)C(F)(F)F | inconclusive: 4.24 µM [inhibitor, single point] | 
CC[C@H]1OC(c2ccccc2)[C@H](C)[C@H]2O[C@@H]2[C@@H]1C(=O)OC (stereo partly specified) | inactive | 
COC(=O)CCC(=O)OC1(C)C(=O)C2=CN(CCc3c[nH]c4ccccc34)C(c3ccc(OC)cc3)=CC2=C(Br)C1=O (stereo unspecified) | inconclusive: 0.0233 µM [activator, partial curve, poor fit] | 
COC(=O)N1C(C)=Cc2ccccc2C1CC(C)=CC(C)=O (stereo unspecified) | inactive and inconclusive: 3.78 µM [inhibitor, single point] | 
COC(=O)N1C2CC(=O)O[C@H]3c4cc5c(cc4[C@]1(C)[C@@]3(Br)c1ccccc12)OCO5 | inconclusive: 2.67 µM [inhibitor, single point] | 
COC(=O)C=C[C@H]1c2ccccc2[C@@H](OC)[C@@H]1C | inconclusive: 0.006 µM [activator, full curve] | 
CCN1C(=NCCc2ccccn2)NC(c2cccc(C(F)(F)F)c2)C(C(=O)OC)=C1C (stereo unspecified) | active: 0.533 µM | 
CCCC[C@]12Cc3cc(C#N)ccc3[C@H](O1)c1c(cc(C)n(-c3ccccc3)c1=O)O2 | inactive | 
CC(=O)[C@@H]1[C@@H](C)N(Cc2ccccc2)C(=O)N[C@H]1c1ccccc1 | inactive | 
CC(=O)C1=C(C)N(Cc2ccccc2)C(=O)NC1c1cccc(C(F)(F)F)c1 (stereo unspecified) | inconclusive: 1.89 µM [inhibitor, partial curve, poor fit] | 
COc1ccc(O[C@H]2C=C[C@@H](c3ccccc3)O[C@H]2COC(=O)CCC(C)=NO[C@H](C)c2cn([C@@H]3COC[C@@H]3O)nn2)cc1 | inconclusive: 4.24 µM [inhibitor, single point] | 
COC(=O)CCCC1=CC2=C(c3ccccc3)C(=O)C(C)(OC(=O)C3CCCC3)C(=O)C2=CN1CCc1c[nH]c2ccccc12 (stereo unspecified) | inconclusive: 0.0147 µM [inhibitor, full curve, poor fit] | 
COC(=O)CCC(=O)OC1(C)C(=O)C=C2C=C(C3CC3)N(CCCOC(C)C)C=C2C1=O (stereo unspecified) | inconclusive: 4.24 µM [inhibitor, single point] | inactive: -1.07% [at 1.12 µM]
COc1cccc([C@H]2Oc3ccc(OC)cc3C(=NO[C@H](C)CN3CCCc4nc(C)c(C)cc43)[C@H]2O)c1 | inconclusive: 1.34 µM [inhibitor, partial curve] | 
COc1cc2c(cc1OC)[C@@H]1O[C@](CCCCN3C(=O)c4ccccc4C3=O)(C2)Oc2c1c(=O)oc1ccc(F)cc21 | inconclusive: 1.5 µM [inhibitor, partial curve] | 
COC(=O)C1=C(C)N(CC2CC2)C(=O)NC1c1ccc(Br)cc1 (stereo unspecified) | inconclusive: 0.0106 µM [inhibitor, full curve, poor fit] | 
COCCN1C(=O)N[C@@H](c2ccccc2)[C@H](C(C)=O)[C@H]1C | inactive | 
C[C@H]1Cc2c(-c3ccccc3)nc3c(c2CO1)CN(C(=O)NCCc1c[nH]c2ccccc12)CC3 | inconclusive: 0.826 µM [inhibitor, partial curve, poor fit] | 

Structure (SMILES) | Potency | activity, negative = inhibition
COC(=O)C1=C(C)N(Cc2ccccc2)C(=NCC2CC2)NC1c1cccc(C(F)(F)F)c1 (stereo unspecified) | inconclusive: 1.69 µM [inhibitor, single point] | 
COC(=O)CCCC1=CC2=CC(=O)C(C)(OC(=O)c3cccs3)C(=O)C2=CN1C1CCCCC1 (stereo unspecified) | inactive | 
C[C@@H]1C=CCC(=O)N[C@@H](c2ccc3ccccc3c2)[C@H](C)C=CCC(=O)N[C@@H]1c1ccc2ccccc2c1 | inconclusive: 2.12 µM [inhibitor, partial curve] | 
COC(=O)C1=C[C@@H]([C@@H](C)[C@H](OC)c2ccccc2Br)[C@@H]2OCCC[C@H]12 | inactive | 
C[C@H]1C=CCC(=O)NCc2cccc(c2)CNC(=O)N[C@@H]1c1ccccc1 |  | inconclusive: -16.6% [inhibitor]
O=C1C2=C(C(=O)c3ccccc31)[C@H]1O[C@](c3ccsc3)(Cc3ccccc31)O2 | inconclusive: 3.78 µM [inhibitor, single point] | 
CCOC(=O)CN1C(=O)N[C@@H](c2cccs2)C(C(=O)OC)=C1C |  | inactive: 1.93% [at 1.12 µM]
CC(=O)C1=C(C)N(CCC=Cc2ccccc2)C(=O)NC1c1ccccc1 (stereo unspecified) | inactive | 
CC(=O)OC[C@H]1O[C@H](CCON=C(C)CCN2CCCCc3nc(C)c(C)cc32)C=C[C@H]1OC(C)=O | inactive | 
COC(=O)C1=C(C)N(Cc2ccccc2)C(=NCCc2ccc([N+](=O)[O-])cc2)NC1c1cccc(F)c1 (stereo unspecified) | inconclusive: 1.5 µM [inhibitor, partial curve] | 
COC(=O)CC=C[C@@H](C)[C@H](O)c1ccccc1Br | inconclusive: 4.24 µM [inhibitor, single point] | 
CC1(OC(=O)C2CCCC2)C(=O)C=C2C=C(c3ccsc3)N(CC3CC3)C=C2C1=O (stereo unspecified) | inconclusive: 1.06 µM [inhibitor, partial curve, poor fit] | 
C[C@H]1Cc2c(COc3ccccc3)nc3c(c2CO1)CN(C(=O)c1cc(I)ccc1F)CC3 | inconclusive: 15 nM [inhibitor, full curve, poor fit] and inconclusive: 369 nM [inhibitor, partial curve, poor fit] | 
COc1ccc(-c2nc3c(c4c2C[C@H](c2ccccc2)OC4)CN(C(=O)c2ccco2)CC3)c(C)c1 | inconclusive: 1.34 µM [inhibitor, partial curve, poor fit] | 
CCc1cc2c(nc1CC)CCN(CCC(C)=NO[C@@H]1O[C@H](COC(C)=O)[C@@H](OC(C)=O)[C@H](OC(C)=O)[C@@H]1OC(C)=O)C2 | inconclusive: 2.67 µM [inhibitor, single point] | 
C[C@H]1CCCC(=O)N[C@@H](c2ccccc2)[C@@H](C)CCCC(=O)N[C@@H]1c1ccccc1 | inactive | 
COc1ccc(-c2nc3c(c4c2C[C@H](c2ccccc2)OC4)CN(C(=O)NCc2ccco2)CC3)c(C)c1 | inconclusive: 2.67 µM [inhibitor, single point] | inactive: -0.324% [at 1.12 µM]
COC(=O)[C@]1(C=C2c3ccccc3C[C@H](OC)[C@@H]2C)[C@@H]2CC=C[C@@H]21 | inactive | 
CCCCc1cc2c(cn1)=C(OC(=O)c1cnc3ccccc3n1)C(C)(OC(=O)CC)C(=O)C=2 (stereo unspecified) | inconclusive: 3.36 µM [inhibitor, partial curve, poor fit] | inactive: 2.28% [at 1.12 µM]
